# Measurements reported in PubChem BioAssay AID485294 (National Center for Advancing Translational Sciences (NCATS), 2010).
# Screen size: about 370,000 compounds; about 150 (0.041%) were called active. This list was built around the results that the source calls inconclusive (neither active nor inactive); the mix of calls is not that of the screen. Calls come from the whole dose curve; as a rule, active = well fitted inhibition curve with a large enough effect; inconclusive = small, poorly fitted or top-dose-only effect; inactive = flat fitted curve, though single readings scatter. No potency is given beside an inconclusive call; the fits are too rough.
# Molecular target: Beta-lactamase (Escherichia coli (strain K12)) (UniProt P00811)
# UniProt P00811, sequence (P00811 whole entry, looked up): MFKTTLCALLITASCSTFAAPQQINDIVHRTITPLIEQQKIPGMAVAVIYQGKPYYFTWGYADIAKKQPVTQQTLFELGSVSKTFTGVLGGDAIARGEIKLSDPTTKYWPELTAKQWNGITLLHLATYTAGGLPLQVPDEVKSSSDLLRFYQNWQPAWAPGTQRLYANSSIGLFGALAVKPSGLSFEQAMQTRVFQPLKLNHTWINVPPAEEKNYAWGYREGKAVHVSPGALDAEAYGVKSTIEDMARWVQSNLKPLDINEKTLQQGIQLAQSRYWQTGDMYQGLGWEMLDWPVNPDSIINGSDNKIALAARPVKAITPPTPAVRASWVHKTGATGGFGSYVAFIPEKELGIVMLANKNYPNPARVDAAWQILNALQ
# Assay: qHTS Inhibitors of AmpC Beta-Lactamase (assay with detergent); note: nearly all actives have a fitted effect of over 25% in size;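 for activity change, negative = inhibition: 0% = no-compound wells and -100% = no-enzyme wells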
# Conditions: AmpC hydrolysis of nitrocefin, absorbance 480 nm, 0.01% Triton; activity change, negative = inhibition: at 114 µM (top of the series)
# In short: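 AmpC (5.3 nM in the dispensed reagent) in 20 mM phosphate pH 7.0 with 0.01% (detergent screen) or 0.0001% Triton X-100 was preincubated with compounds for 15 min at room temperature. Nitrocefin was then added from an 800 uM solution, and hydrolysis was followed at 480 nm.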
# Potency is the fitted concentration of half-maximal effect; tags give direction and shape of the fitted curve.
Structure (SMILES),"activity change, negative = inhibition",Potency
COC(=O)c1cc2c(ccn2-c2ccc(F)cc2)n1Cc1cccc(OC)c1,inactive: -15.9%,–
CSc1nc2c(c(=O)n1C)SC(C)C2 (stereo not given),–,"inconclusive [inhibitor, single point]"
O=C1NC(=O)N(c2ccc3c(c2)OCO3)C(=O)/C1=C/c1ccsc1,–,"inconclusive [inhibitor, partial curve]"
COc1ccccc1N(CN1CCCC1=O)C(=O)c1ccccc1F,–,"inconclusive [inhibitor, full curve, poor fit]"
COC(=O)[C@H](C)NC(=O)NCc1ccco1,–,"inconclusive [inhibitor, full curve, poor fit]"
CC(=O)Oc1ccccc1-c1nc(C)nc(N(C)C(C)=O)n1,–,"inconclusive [inhibitor, single point]"
COc1ccc(-c2c3c(=O)n(C)c(=O)n(C)c3cn2Cc2ccccn2)cc1,inactive: -14.8%,–
Cc1ccc(S(=O)(=O)N2CCN(C(=O)c3ccc(N4CCCCC4)c([N+](=O)[O-])c3)CC2)cc1,–,"inconclusive [inhibitor, full curve]"
CCOC(=O)Cn1c(=O)n(C2CCCCC2)c2nc(-c3ccc(Cl)cc3)nc(C(N)=O)c21,inactive: 8.45%,–
Clc1ccc(-c2cn3nc4c(nc3n2)CCCC4)cc1,–,"inconclusive [inhibitor, single point]"
COc1ccc(N2C(=O)C(OC(C)=O)C2c2ccc(C)cc2)cc1 (stereo not given),–,"inconclusive [inhibitor, partial curve]"
O=C(N/N=C/C=C/c1ccccc1[N+](=O)[O-])c1cccnc1,inactive: -5.18%,–
COCc1nnc(NS(=O)(=O)c2ccc(F)cc2)s1,–,"inconclusive [inhibitor, full curve, poor fit]"
CCC(C(=O)NC1CC1)n1nc(C)c2c(C)n(-c3ccc(C)cc3)nc2c1=O (stereo not given),inactive: 2.39%,–
COc1cc2c(cc1OC)CN(Cc1ccc(OC)c(C)c1OC)CC2,–,"inconclusive [inhibitor, partial curve]"
CN(C)CCSc1nc(N)c2c3c(sc2n1)COC(C)(C)C3,–,"inconclusive [inhibitor, partial curve]"
CCOc1ccc(CNC2CCCc3ccccc32)cc1 (stereo not given),–,"inconclusive [inhibitor, full curve, poor fit]"
CCOC(=O)C1=C(c2ccccc2)NC(SC)=C(C#N)C1c1cccnc1 (stereo not given),inactive: 1.83%,–
Cc1cccc(OC(C)C(=O)Nc2nc(-c3ccncc3)cs2)c1 (stereo not given),–,"inconclusive [inhibitor, partial curve]"
CC(=O)c1ccc(OCC(O)CN2CCN(CC(O)COc3ccc(C(C)=O)cc3)CC2)cc1 (stereo not given),inactive: 0%,–
